{"source": "the BET-seq Pho4 binding data (Le et al. 2018)", "note": "This is one part of the list. These are noisy estimates, calculated here from bound and input reads."}
{"molecular_target": "T1, Pho4 (S. cerevisiae) (UniProt P07270)", "T1 sequence": "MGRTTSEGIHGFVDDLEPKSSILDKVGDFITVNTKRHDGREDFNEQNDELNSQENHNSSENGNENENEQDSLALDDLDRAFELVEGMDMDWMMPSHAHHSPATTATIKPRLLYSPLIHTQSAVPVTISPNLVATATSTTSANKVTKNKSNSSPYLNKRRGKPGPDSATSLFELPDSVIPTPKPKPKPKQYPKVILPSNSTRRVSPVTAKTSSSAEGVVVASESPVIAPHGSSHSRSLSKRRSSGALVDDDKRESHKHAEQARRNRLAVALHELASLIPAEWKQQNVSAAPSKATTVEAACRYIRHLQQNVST", "experiment": "relative binding free energy (BET-seq); higher = weaker binding", "conditions": "reference: library average", "units": {"relative binding free energy": "kcal/mol"}}
{"sequence": "TATAGCACGTGAGAGT", "relative binding free energy": 0.21}
{"sequence": "TGTTTCACGTGGCACG", "relative binding free energy": 0.22}
{"sequence": "AGTAACACGTGTAAAT", "relative binding free energy": 0.14}
{"sequence": "ATGGGCACGTGGGTGG", "relative binding free energy": -0.2}
{"sequence": "TAGAACACGTGAGTTT", "relative binding free energy": 0.2}
{"sequence": "TGGGGCACGTGTCGCG", "relative binding free energy": -0.23}
{"sequence": "AAGAACACGTGGGAGT", "relative binding free energy": 0.11}
{"sequence": "TGGTCCACGTGAGGGA", "relative binding free energy": 0.16}
{"sequence": "TTTCTCACGTGGGTTA", "relative binding free energy": 0.1}
{"sequence": "GCTAACACGTGTAGGG", "relative binding free energy": 0.04}
{"sequence": "TAAGTCACGTGAGCGT", "relative binding free energy": 0.17}
{"sequence": "CGGGGCACGTGCTCGG", "relative binding free energy": -0.14}
{"sequence": "TTGACCACGTGTTGGA", "relative binding free energy": -0.02}
{"sequence": "GACATCACGTGGGAGG", "relative binding free energy": 0.17}
{"sequence": "CGTGACACGTGGTAGA", "relative binding free energy": -0.03}
{"sequence": "GGGTCCACGTGGGTGC", "relative binding free energy": -0.11}
{"sequence": "TTTATCACGTGCCGGG", "relative binding free energy": 0.11}
{"sequence": "GTTTCCACGTGGGTCT", "relative binding free energy": 0.02}
{"sequence": "TTTGGCACGTGTATGG", "relative binding free energy": -0.02}
{"sequence": "TGGGACACGTGGATCG", "relative binding free energy": 0.06}
{"sequence": "TTTATCACGTGGGTAG", "relative binding free energy": 0.12}
{"sequence": "AGGATCACGTGTTGAA", "relative binding free energy": 0.19}
{"sequence": "AGGAGCACGTGTTCGG", "relative binding free energy": -0.19}
{"sequence": "TGAGACACGTGGTCGT", "relative binding free energy": 0.02}
{"sequence": "GAGGTCACGTGTTGGA", "relative binding free energy": 0.29}
{"sequence": "ATGTTCACGTGTTTCA", "relative binding free energy": 0.29}
{"sequence": "GTGTACACGTGAAGGT", "relative binding free energy": 0.26}
{"sequence": "GGGTACACGTGGCGTT", "relative binding free energy": 0.18}
{"sequence": "TCAGTCACGTGTTCTT", "relative binding free energy": 0.17}
{"sequence": "AATGGCACGTGGTAAG", "relative binding free energy": -0.13}
{"sequence": "GGGGTCACGTGGTTCT", "relative binding free energy": 0.25}
{"sequence": "TAAGGCACGTGTGTTG", "relative binding free energy": -0.01}
{"sequence": "TAGATCACGTGTGGAT", "relative binding free energy": 0.22}
{"sequence": "CGCGCCACGTGGGGGG", "relative binding free energy": -0.34}
{"sequence": "AGACACACGTGATGGG", "relative binding free energy": 0.2}
{"sequence": "GGACGCACGTGGGATT", "relative binding free energy": -0.1}
{"sequence": "CGGGGCACGTGTGACG", "relative binding free energy": 0.01}
{"sequence": "TTGTTCACGTGGTGGC", "relative binding free energy": 0.2}
{"sequence": "TAGGGCACGTGGTCTA", "relative binding free energy": -0.19}
{"sequence": "GTCTCCACGTGTGGTG", "relative binding free energy": 0.08}
{"sequence": "TCTGTCACGTGATTTG", "relative binding free energy": 0.25}
{"sequence": "AAGTCCACGTGGTTTT", "relative binding free energy": -0.02}
{"sequence": "TGGAACACGTGGGTGG", "relative binding free energy": 0.03}
{"sequence": "CGCTGCACGTGGTGTT", "relative binding free energy": -0.19}
{"sequence": "CTTGACACGTGGGGTG", "relative binding free energy": -0.13}
{"sequence": "GACGCCACGTGGGGTG", "relative binding free energy": -0.09}
{"sequence": "AGAGGCACGTGGTTAG", "relative binding free energy": -0.24}
{"sequence": "GGGTTCACGTGAGCGT", "relative binding free energy": 0.27}
{"sequence": "TTTGTCACGTGTACCG", "relative binding free energy": 0.08}
{"sequence": "TTTGACACGTGTCTGA", "relative binding free energy": 0.09}
{"sequence": "TGGAACACGTGGAGAT", "relative binding free energy": 0.05}
{"sequence": "TTAAGCACGTGTTTGA", "relative binding free energy": -0.29}
{"sequence": "GTGGTCACGTGCTGAG", "relative binding free energy": 0.16}
{"sequence": "TGTCACACGTGGTGGG", "relative binding free energy": -0.01}
{"sequence": "TCAGGCACGTGGGGAG", "relative binding free energy": -0.27}
{"sequence": "TTGTTCACGTGAAGGC", "relative binding free energy": 0.35}
{"sequence": "TCTATCACGTGAAGGT", "relative binding free energy": 0.41}
{"sequence": "TGTGGCACGTGGAGCG", "relative binding free energy": -0.12}
{"sequence": "ACGGTCACGTGTTATT", "relative binding free energy": 0.09}
{"sequence": "TGACTCACGTGGTTGG", "relative binding free energy": 0.21}
{"sequence": "AGCGTCACGTGGGATT", "relative binding free energy": 0.01}
{"sequence": "GGAGGCACGTGTGAAG", "relative binding free energy": 0.04}
{"sequence": "TGTATCACGTGTGCAA", "relative binding free energy": 0.17}
{"sequence": "ATGCACACGTGTGGAT", "relative binding free energy": 0.1}
{"sequence": "CATTACACGTGTGCGG", "relative binding free energy": 0.15}
{"sequence": "AGTTGCACGTGGGAAA", "relative binding free energy": -0.03}
{"sequence": "TGAATCACGTGAGAGG", "relative binding free energy": 0.27}
{"sequence": "TTTCACACGTGTGTAT", "relative binding free energy": -0.05}
{"sequence": "TTTGGCACGTGCATGT", "relative binding free energy": -0.26}
{"sequence": "TGTTTCACGTGATGGT", "relative binding free energy": 0.42}
{"sequence": "TTATTCACGTGCTCGG", "relative binding free energy": 0.2}
{"sequence": "GGTGTCACGTGCGATT", "relative binding free energy": 0.15}
{"sequence": "TACGGCACGTGTAGGA", "relative binding free energy": 0.06}
{"sequence": "TGTTACACGTGCGTGC", "relative binding free energy": 0.07}
{"sequence": "ATTAACACGTGTGGGT", "relative binding free energy": -0.03}
{"sequence": "GTGTTCACGTGGGGTT", "relative binding free energy": 0.21}
{"sequence": "TCTGTCACGTGACAGG", "relative binding free energy": 0.19}
{"sequence": "TCCGTCACGTGTGAGT", "relative binding free energy": 0.16}
{"sequence": "GGGTACACGTGTAAGT", "relative binding free energy": 0.14}
{"sequence": "AGGTACACGTGTAGTG", "relative binding free energy": 0.07}
{"sequence": "AGTTGCACGTGACAGT", "relative binding free energy": 0.12}
{"sequence": "TAGGGCACGTGGACGC", "relative binding free energy": -0.03}
{"sequence": "AAGCACACGTGAGGGG", "relative binding free energy": 0.3}
{"sequence": "TATGACACGTGTTCGG", "relative binding free energy": -0.13}
{"sequence": "CGGCGCACGTGATGGT", "relative binding free energy": 0.02}
{"sequence": "GGTGACACGTGGCATT", "relative binding free energy": -0.09}
{"sequence": "ATTTACACGTGATCGT", "relative binding free energy": 0.09}
{"sequence": "TTAGCCACGTGAAGGT", "relative binding free energy": 0.11}
{"sequence": "CATGGCACGTGTGGAT", "relative binding free energy": -0.08}
{"sequence": "ATGCGCACGTGCAGGT", "relative binding free energy": -0.18}
{"sequence": "TGACTCACGTGGGTTA", "relative binding free energy": 0.03}
{"sequence": "TTTGTCACGTGCAAGT", "relative binding free energy": 0.09}
{"sequence": "ATTTTCACGTGTTAGT", "relative binding free energy": 0.18}
{"sequence": "GTCGTCACGTGGTAGA", "relative binding free energy": 0.04}
{"sequence": "GTCGTCACGTGGTTGG", "relative binding free energy": 0.05}
{"sequence": "CGTTGCACGTGTGGAG", "relative binding free energy": 0.02}
{"sequence": "TGAAGCACGTGGTAAT", "relative binding free energy": -0.16}
{"sequence": "AGGAACACGTGTGGAT", "relative binding free energy": 0.08}
{"sequence": "TCGTTCACGTGGTTAA", "relative binding free energy": 0.12}
{"sequence": "ATTCACACGTGATGTT", "relative binding free energy": 0.21}
{"sequence": "TTTGCCACGTGGAGTA", "relative binding free energy": -0.13}
{"sequence": "GTTTTCACGTGTTCTT", "relative binding free energy": 0.35}
{"sequence": "ATGAGCACGTGATTGT", "relative binding free energy": -0.02}
{"sequence": "GGTTCCACGTGTGGTT", "relative binding free energy": 0.14}
{"sequence": "CTTTGCACGTGTCGGG", "relative binding free energy": -0.03}
{"sequence": "GGGCTCACGTGACTGG", "relative binding free energy": 0.37}
{"sequence": "TGTAGCACGTGGGCGC", "relative binding free energy": -0.31}
{"sequence": "TTAATCACGTGCCTTT", "relative binding free energy": 0.17}
{"sequence": "GGGCTCACGTGGGTAT", "relative binding free energy": 0.19}
{"sequence": "GTGTGCACGTGGCCGG", "relative binding free energy": 0.01}
{"sequence": "GTGCACACGTGGTGTC", "relative binding free energy": 0.27}
{"sequence": "TTTGGCACGTGATTGC", "relative binding free energy": 0.01}
{"sequence": "CTTGACACGTGGGTTA", "relative binding free energy": -0.25}
{"sequence": "TGGATCACGTGTCTGT", "relative binding free energy": 0.09}
{"sequence": "TGGTTCACGTGCCGGA", "relative binding free energy": 0.28}
